# Assay results taken from US20220249416A1, “SYNERGISTIC COMBINATIONS OF SYNTHETIC LYSINE ANALOGS, DERIVATIVES, MIMETICS, OR PRODRUGS AND PHARMACEUTICAL AGENTS FOR ENHANCED EFFICACY” (priority 2019, published 2022).
# Tested on: HSV-1 Strain 17+
# Assay: Effect of 2% tranexamic acid on HSV transcription (RT-qPCR) in rabbit skin cells
# Assay type: cell-based, Herpes Simplex Virus Type 1
structure (smiles),measurement,setting,value
NC[C@H]1CC[C@H](C(=O)O)CC1 [tranexamic acid],"early gene transcription (ICP8, thymidine kinase)",MOI 0.5 and 0.05,does not cause a significant decrease
same,"reduction of late gene expression (gC, VP16)",both high and low MOI,up to 8 fold
